Holding throughout (experiment): pull-down; HEK293 cells treated with 50 μM MG132 for 12 hours; microsomes solubilised in 1% digitonin, 300 mM NaCl, 10 mM imidazole, pH 8.0; Derlin-1 held on Ni2+ beads overnight at 4°C; blots against Derlin-1 and CFTR
In one assay the target is T1, Derlin-1 A45S (human) (UniProt Q9BUN8).
T1 sequence: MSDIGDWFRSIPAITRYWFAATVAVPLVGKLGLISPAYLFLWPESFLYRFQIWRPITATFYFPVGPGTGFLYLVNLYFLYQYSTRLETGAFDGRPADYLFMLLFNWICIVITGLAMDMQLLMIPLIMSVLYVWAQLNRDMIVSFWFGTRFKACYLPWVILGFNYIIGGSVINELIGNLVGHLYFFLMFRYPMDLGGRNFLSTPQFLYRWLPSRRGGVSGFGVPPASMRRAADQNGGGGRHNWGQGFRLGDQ

By UniProt entry, the sequences of proteins in these tests, tags left out. Where a name states a change or a piece, a line headed by the entry shows the natural chain unless it says otherwise. Chains listed by the source or under a name are the forms on record and can include a tag or linker.
CFTRΔF508 (P13569, form named): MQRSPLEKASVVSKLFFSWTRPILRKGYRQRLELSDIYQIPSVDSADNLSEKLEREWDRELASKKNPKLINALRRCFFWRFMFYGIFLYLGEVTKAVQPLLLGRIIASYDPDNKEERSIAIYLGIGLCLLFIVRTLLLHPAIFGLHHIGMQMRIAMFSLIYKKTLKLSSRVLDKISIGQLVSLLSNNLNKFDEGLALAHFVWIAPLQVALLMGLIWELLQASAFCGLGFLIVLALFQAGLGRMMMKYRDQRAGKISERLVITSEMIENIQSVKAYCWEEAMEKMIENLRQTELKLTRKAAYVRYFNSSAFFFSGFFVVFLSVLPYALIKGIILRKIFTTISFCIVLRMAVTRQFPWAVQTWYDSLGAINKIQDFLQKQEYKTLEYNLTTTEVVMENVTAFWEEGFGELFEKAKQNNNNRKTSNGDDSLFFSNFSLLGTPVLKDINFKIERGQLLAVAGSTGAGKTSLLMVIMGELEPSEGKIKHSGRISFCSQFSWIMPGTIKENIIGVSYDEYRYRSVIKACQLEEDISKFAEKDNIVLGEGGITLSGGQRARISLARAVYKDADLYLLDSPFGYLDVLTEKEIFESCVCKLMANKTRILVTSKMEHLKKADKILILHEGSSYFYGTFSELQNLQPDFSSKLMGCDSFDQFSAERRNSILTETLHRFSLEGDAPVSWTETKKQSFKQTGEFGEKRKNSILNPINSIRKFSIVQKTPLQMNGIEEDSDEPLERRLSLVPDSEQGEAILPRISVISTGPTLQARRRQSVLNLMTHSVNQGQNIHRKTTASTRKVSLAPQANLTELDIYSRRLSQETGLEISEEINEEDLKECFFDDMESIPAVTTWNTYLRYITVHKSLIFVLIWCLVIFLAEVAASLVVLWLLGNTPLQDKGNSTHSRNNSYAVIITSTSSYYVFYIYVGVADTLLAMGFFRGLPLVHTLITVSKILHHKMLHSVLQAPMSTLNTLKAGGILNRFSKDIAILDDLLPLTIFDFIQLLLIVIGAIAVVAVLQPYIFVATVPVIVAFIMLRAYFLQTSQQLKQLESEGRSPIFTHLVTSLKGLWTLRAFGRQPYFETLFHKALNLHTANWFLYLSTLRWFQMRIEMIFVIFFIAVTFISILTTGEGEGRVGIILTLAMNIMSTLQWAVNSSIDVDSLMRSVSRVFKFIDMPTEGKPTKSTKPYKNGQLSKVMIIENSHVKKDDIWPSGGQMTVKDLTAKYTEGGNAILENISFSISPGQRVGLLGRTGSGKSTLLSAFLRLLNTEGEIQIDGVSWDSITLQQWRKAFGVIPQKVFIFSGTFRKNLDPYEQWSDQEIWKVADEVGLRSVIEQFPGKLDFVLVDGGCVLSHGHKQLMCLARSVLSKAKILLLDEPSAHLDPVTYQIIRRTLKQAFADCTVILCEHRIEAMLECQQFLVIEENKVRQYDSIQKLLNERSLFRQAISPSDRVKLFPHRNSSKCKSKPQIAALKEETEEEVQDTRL

A further assay concerns the target T2, Derlin-1 F91A (human) (UniProt Q9BUN8).
T2 sequence: T1 sequence with S45A, F91A

The target of another assay is T3, Derlin-1 R49A (human) (UniProt Q9BUN8).
T3 sequence: T1 sequence with S45A, R49A

The next assay deals with T4, Derlin-1 W53A (human) (UniProt Q9BUN8).
T4 sequence: T1 sequence with S45A, W53A

Where a chain is given by its changes, count along the chain named. These are yes or no findings as the source states them, for the method shown. In cells and extracts the contact can be indirect. Some binding calls cover weakened binding; strength is not graded here.

For the substance CFTRΔF508 (from UniProt P13569 1-1480), the binding entry is on record as “no binding” with Derlin-1 A45S (human), “binds” with Derlin-1 F91A (human), “no binding” with Derlin-1 R49A (human) and “no binding” with Derlin-1 W53A (human).

The values above are taken from PMC8641752.
